Over roughly 110,000 compounds, “z-score” has its median near -0.1; the highest 2% begin near 2. The list shows a part of the results. Active and inactive are the calls of the source.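 How the source made its calls: active means z-score in the third read window above 3 or below -3; inactive means the rest.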

The target in this experiment is Metabotropic glutamate receptor 8 (Rattus norvegicus) (UniProt P70579). Put plainly: rat mGluR8 modulators via GIRK flux, primary screen, cell-based, thallium flux, HTS (AID 488969). The note with it: HEK293 rat mGluR8, GIRK (G protein-gated inwardly rectifying potassium channel) thallium flux, FluoZin2; at 10 µM; stronger effect = higher value; submaximal glutamate (EC20) added with thallium.
Chain of UniProt P70579 (P70579 whole entry, looked up): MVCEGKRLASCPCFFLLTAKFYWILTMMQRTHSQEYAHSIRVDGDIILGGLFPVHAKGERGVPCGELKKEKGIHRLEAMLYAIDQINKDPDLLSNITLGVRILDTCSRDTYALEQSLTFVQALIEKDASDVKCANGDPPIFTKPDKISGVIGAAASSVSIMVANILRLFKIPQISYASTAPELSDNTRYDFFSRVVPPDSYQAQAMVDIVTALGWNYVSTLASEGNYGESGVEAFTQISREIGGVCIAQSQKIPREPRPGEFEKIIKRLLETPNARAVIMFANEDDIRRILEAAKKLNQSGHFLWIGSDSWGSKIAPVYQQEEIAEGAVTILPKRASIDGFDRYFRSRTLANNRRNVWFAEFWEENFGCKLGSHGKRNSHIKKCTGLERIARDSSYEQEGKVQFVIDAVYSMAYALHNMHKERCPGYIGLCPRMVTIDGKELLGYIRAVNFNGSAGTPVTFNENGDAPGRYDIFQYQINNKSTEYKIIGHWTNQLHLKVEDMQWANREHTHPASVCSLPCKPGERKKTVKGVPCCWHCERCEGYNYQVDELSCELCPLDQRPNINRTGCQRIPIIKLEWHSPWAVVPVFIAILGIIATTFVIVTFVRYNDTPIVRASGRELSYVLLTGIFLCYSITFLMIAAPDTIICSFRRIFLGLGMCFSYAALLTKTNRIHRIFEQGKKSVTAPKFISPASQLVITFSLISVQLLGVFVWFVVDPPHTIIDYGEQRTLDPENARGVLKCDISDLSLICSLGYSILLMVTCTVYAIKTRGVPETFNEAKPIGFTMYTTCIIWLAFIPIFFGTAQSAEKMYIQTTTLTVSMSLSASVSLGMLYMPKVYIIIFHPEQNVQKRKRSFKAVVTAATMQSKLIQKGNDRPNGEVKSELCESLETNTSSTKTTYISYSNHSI
`Nc1ccc(N2CCN(C(=O)c3ccco3)CC2)cc1`: the z-score is 0.119.
Next, `O=C(/C=C/Nc1ccccc1F)c1cccs1`: -0.0967.
With `O=C(Nc1ccccc1)Nc1ccc(S(=O)(=O)N2CCCCC2)cc1`, the z-score was -0.197.
Regarding `CCC(CC)C(=O)Nc1cccc(/C(C)=N/NC(=O)c2c(Br)cnn2C)c1`, the z-score was -0.0557.
Next, `COC(=O)NNC(=O)c1ccc(C)cc1`: 0.0536; `COc1ccc(N2CCN(Cc3cc(=O)oc4cc(C)c(Cl)c(C)c34)CC2)cc1`: -0.294.
Next, `COc1ccc(OC)c(NC(=O)c2cnc3n(c2=O)CCS3)c1`: 0.0316; `CC(NC(=O)c1ccco1)C1COc2ccccc2O1` (configuration not stated): -0.128; `COC(=O)c1sccc1NC(=O)CN(C)NS(=O)(=O)c1ccc(Cl)cc1`: -0.811.
The value for `Cc1cc(SCC(=O)NCCN2C(=O)CSC2=O)nc2c(C)cccc12` was -0.139; that for `COc1ccc(-c2nnc(OCc3nc4ccccc4n3C)c3ccccc23)cc1` was -0.502.
On to `Cc1ccc(N(CC(=O)N2CCOCC2)S(C)(=O)=O)cc1C`, for which the z-score was -0.191.
The value for `CCOc1ccc(C(=O)NCC(=O)OCC(=O)N2C(C)CCCC2C)cc1` (configuration not stated) was -0.00547.
Next, `CN1CCN(C(=O)CCCOc2cc(=O)n(C)c3ccccc23)CC1`: -0.186; `COc1ccc(C(=O)C[n+]2ccc3c(c2)nc(-c2cc(OC)c(OC)cc2OC)n3C)cc1`: -0.0851; `CCOC(=O)N1CCN(c2ccc(O)cc2)CC1`: -0.138.
Regarding `COc1ccc(C=NC(CO)C(O)c2ccc([N+](=O)[O-])cc2)cc1` (configuration not stated), the z-score worked out at 0.263.
Take `COC(=O)c1c(NS(=O)(=O)Cc2ccccc2)sc2c1CCCC2`: the z-score was active: 17.
The value for `COc1ccc(Nc2nc(C)c(-c3ccccc3)s2)cc1` was 0.186; that for `COc1ccc(CN=CC2=C(O)CNC2=O)cc1` was -0.252; that for `CS(=O)(=O)N1CC(C(=O)NN)Oc2ccc(Cl)cc21` (configuration not stated) was -0.56.
The value for `Cc1ccccc1N=Nc1ccc(O)c2ncccc12` was active: 4.67; that for `CCC(C)C(=O)Nc1ncc2c(n1)CC(c1cccs1)CC2=O` (configuration not stated) was 0.31; that for `CCOc1ccccc1Nc1nc(N)nc(CN(C)C2CCCCC2)n1` was 0.209.
As for `Cc1cccc(C(=O)NC(NC(=S)Nc2ccc(S(N)(=O)=O)cc2)C(Cl)(Cl)Cl)c1` (configuration not stated), the z-score is -0.112.
In the case of `COC(=O)c1ccc(COC(=O)c2ccc(N(C)C)cc2)cc1`, the z-score is -0.847.
The value for `COc1ccccc1C1/C(=C(/O)c2ccc(C)cc2)C(=O)C(=O)N1CC(C)O` (configuration not stated) was -0.364.
Next, `CCOc1ccc2ccccc2c1/C=N/NC(=O)CNC(=O)Cc1ccccc1`: -0.191.
The compound `O=C(Nc1ccccc1)C1CCN(c2nccs2)CC1` registered a z-score of 0.101.
Take `Cc1cccc2c(CCNC(=O)c3ccc([N+](=O)[O-])cc3)c[nH]c12`: the z-score is -0.233.
On to `O=C(CN1CCOCC1)Nc1ccccc1`, for which the z-score was -0.0461.
Next, `C/C(CCc1ccc2c(c1)OCO2)=N\N=C(/N)SC1CC(=O)N(c2ccccc2F)C1=O` (configuration not stated): -0.0429.

The values are drawn from PubChem BioAssay AID488969 (Vanderbilt High Throughput Screening Facility, 2010).
